# Laboratory results reported in the supplement of paper PMC11417369.
# ± gives the standard deviation of the averaged measurements. The list shows a part of the results.
# System: PfAP2-EXP AP2 domain (GST-tagged)
# Assay: gcPBM binding intensity (ln(normalized median fluorescence intensity)); higher = stronger DNA binding
# How it was run: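 Binding of GST-tagged P. falciparum DNA-binding domains, expressed in E. coli and used at about 25 μg on average, was carried out for 1 h in 1× PBS containing 1% milk, 0.2 mg/ml BSA, 0.5% salmon testes DNA and 0.03% Triton X-100. The target was an Agilent 4 × 180k array of primer-extended double-stranded 36-bp intergenic genomic probes plus negative controls, read with Alexa488 anti-GST antibody at 488 nm. Binding intensity is the highest Masliner-normalised natural-log median intensity across replicate spots of either probe orientation.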
row,Sequence,gcPBM binding intensity (ln)
1,CATAAATACAAATATACACACATATTTATATTTATA [CACACA_site7277],8.28 ± 0.36
2,AATATGTTTTACGTCTCACACATATAGGTTTATATT [CACACA_site4713],8.8 ± 0.38
3,ATATATAGATGTGAATTATTTATATTATCTATTCTT [CACACA_negctrl_site518],8.16 ± 0.18
4,ATTATACTTTCCATTCGTACATATATAAATAAATAA [XGTACX_site6245],8.93 ± 0.35
5,AAACTTCAAAAAGAGCACTTGAATTTTTTTTTTTTT [TGCATGCA_negctrl_site133],8.12 ± 0.39
6,AAAAAGAACACAAAAAGTACAAAAATTATAATGATA [XGTACX_site2676],8.79 ± 0.74
7,ATATTTTAAAATAATACACACAAAATGATTCTTAAT [CACACA_site2930],8.88 ± 0.46
8,AACAATAAATTATTATGTACACATATATTATATATA [XGTACX_site4629],8.38 ± 0.32
9,TATATTATATAATTTTAACACACAAGAATATAAACT [CACACA_site8378],8.71 ± 0.57
10,ATAAGTATTACTAGTACACACAAGTTGTTAATCCTT [CACACA_site3324],8.8 ± 0.45
11,TATTTAAAATAATAACAAAATTAACATAAATATATA [GTGCAC_negctrl_site472],8.31 ± 0.42
12,TTAGATATAAAAGCATGTACTTGTATAAAATATATA [XGTACX_site8272],8.35 ± 0.42
13,TTCCCTATATAGAGCATGCACTATATTCAAATGATG,9.23 ± 0.16
14,TTATCAAATGAGTGTTGTACGTCTTTTGAAATACCA [XGTACX_site8804],8.29 ± 0.3
15,GAAAAATTGAATTTGGGTACATATAAATATTATATT [XGTACX_site2363],8.27 ± 0.35
16,ATAAATATTAGCAGTTGTACAATAAATATATGTAAT [XGTACX_site2534],8.71 ± 0.38
17,TATGAACACCCAAATACACACACTCAAAAAAAAAAA [CACACA_site5466],8.4 ± 0.32
18,AAAATGTTTTTATCCAGTACATAAATATATATATAT [XGTACX_site7398],9.89 ± 0.26
19,TCAGATCCATAGAAGGTGCAAATAACAAAAATACAA [GTGCAC_site9610],9.23 ± 0.11
20,TAATTTTTCTTATATAGTACACAAAAAGAAAATTAC [XGTACX_site6393],8.61 ± 0.34
21,ATATATATATATATATGTACATATATTTGTAATGTC [XGTACX_site8074],10.2 ± 0.43
22,TTTATTATGTAAGCATGTACATGATGTATATATTTA [XGTACX_site5021],8.58 ± 0.34
23,TATTTACAAATAAAAAGTACATAAACTAATATCTTT [XGTACX_site2181],8.45 ± 0.29

row,Sequence,gcPBM binding intensity (ln)
1,ATCTGTACAGTTTTTGCACACATATAAATAAAAAAA [CACACA_site9198],9.045 ± 0.007
2,TATATTAGAAAGGATACACACATATATAAATATCTA [CACACA_site6411],8.41 ± 0.29
3,TTGTTTGTAAACAGATGTACATATAAAAATATATAT [XGTACX_site3370],8.46 ± 0.014
4,TAAATACTTATATGTACACACATATAGATATATATT [CACACA_site2553],8.27 ± 0.26
5,ATATAAATAAATGTATGTACATATATTTATATGCAT [XGTACX_site4185],8.41 ± 0.3
6,ATTTTTTAAAATATTTGTACATATATAATGCATATA [XGTACX_site7026],8.65 ± 0.35
7,CACAGACACGGACACACACACACACCGATATATATA [CACACA_site4353],8.8 ± 0.35
8,ACATAATAAAAAAAACGTACAAATAGGTTTTTCATA [XGTACX_site6645],8.51 ± 0.35
9,GACTATTTTAATATTTTACACACCATGTAAAATATA [CACACA_site9050],8.73 ± 0.38
10,TTTTTTTATTATTAAAGTACTAAAAAATGAAAACTG [XGTACX_site6758],8.26 ± 0.18
11,TATAATAAAAAATGTACACACATAAGAAAATTTAAT [CACACA_site2901],8.86 ± 0.36
12,TGGGAATAAAAACACACACACACACCGATATATATA [CACACA_site5875],8.88 ± 0.39
13,ATATATTAAAACCTAGTGCATTTGTACATATTTCAA,8.6 ± 0.24
14,GCAGTCAAAAAGGAAAATATAAAAAAAGTATATGTG [GTGCAC_negctrl_site95],8.47 ± 0.36
15,TTATACAGGACAATAGTGCACATAAATATATGTATA,9.07 ± 0.16
16,AGGTTAAAACATATATATATATATATATATATATAT [XGTACX_negctrl_site333],9.99 ± 0.81
17,TATATATATATATACACACACACCGTCCGTGTTAAA [CACACA_site2979],10.1 ± 0.38
18,AAGTAATTTATGCATACACACATATATAAATATGTA [CACACA_site7813],8.51 ± 0.37
19,ATATATATAAAACACACACACACATGTTTTAAAACT [CACACA_site78],8.88 ± 0.49
20,AAAAACTATTGTAGGACACACAAAATTCCAATTTTA [CACACA_site1701],8.47 ± 0.42
21,AAATAAATGTTATGCATACACACTTTATACCTATTT [CACACA_site3779],8.66 ± 0.47
22,TCTTTTATGTTTGTTTTTCCCTTTTTTTATGTTCCC [CACACA_negctrl_site1722],8.96 ± 0.64
23,AATGAATGAATTATTTTGCGCTTATTATAGGACGAA [XGTACX_negctrl_site218],8.6 ± 0.41

row,Sequence,gcPBM binding intensity (ln)
1,ATATATATTAGGTATTGTACTTATATGCATATAAGT [XGTACX_site2700],8.71 ± 0.33
2,TATATATATATTTATACACACATTAGTGTATACATG [CACACA_site2950],9.6 ± 0.22
3,CACAAAAAGAAACACACACACATATATATTTATTAT [CACACA_site3646],8.45 ± 0.49
4,GTAAGCACACATAGTTGTACATTAATAAAAATAAAT [XGTACX_site5876],8.62 ± 0.38
5,ATATGTATGAAGTGTACACATATATTGTATTTTCTT [CACACA_site5503],8.68 ± 0.4
6,TTCCTATAAAAAAACACACACATATAAATATATATA [CACACA_site2318],8.31 ± 0.29
7,TACAATTTAATATATACACACAAATAAATTATGCTT [CACACA_site856],8.07 ± 0.41
8,AACAATTTATATAAAGCACACATGGGAAGGAAATAC [CACACA_site1712],9.61 ± 0.38
9,TTATTGCATATTTACACACGTACTAATTTAAACAAG [CACACA_site971],8.79 ± 0.37
10,AGAATATTTAAAAAAGGTACACAAAAACCAAAATAA [XGTACX_site8569],8.9 ± 0.42
11,ATATATGACAAATGTAGTACAAATTATTGTATCATA [XGTACX_site3675],8.48 ± 0.31
12,ATAAATTCATATATGAGTACTAAAAATATCTTTTTC [XGTACX_site5541],8.47 ± 0.44
13,TATTAATACAGACACACACACACACCCAATAAAATA [CACACA_site243],8.71 ± 0.69
14,CAATGGTCATTTAGTTGTACTTAATTTTAAATCAAA [XGTACX_site4075],8.39 ± 0.22
15,AAAAAAAACGAACACACACACATTCAATATAAAACA [CACACA_site6170],8.65 ± 0.54
16,TTAAAAATATTATGTACACACATTTGAGATATTTGT [CACACA_site6953],8.2 ± 0.35
17,TTTTTTGTTATTAAAAGTACATTATATGCTAGTTAA [XGTACX_site8747],8.22 ± 0.3
18,TGAAATAAAATTTATACACACTTGCTAAATGATCAT [CACACA_site4265],8.32 ± 0.47
19,TATCATTAATTTACATGTACATAAATGAATGTTTAT [XGTACX_site5608],8.39 ± 0.28
20,TTCGTAATTTATATCACACACATATATCTATAATAA [CACACA_site7458],8.6 ± 0.18
21,AAAGGCTATCTTATATACTCCTAAAACGCGAACGTA [CACACA_negctrl_site396],8.32 ± 0.56
22,AATATATAAATATTGTGTACTTATTTTTTTATATGT [XGTACX_site4377],8.49 ± 0.18
23,ATAAATTCTATGTATACACACATATAAAATATAGAT [CACACA_site7296],8.38 ± 0.4

row,Sequence,gcPBM binding intensity (ln)
1,ATTATATACATATATGCACACAAAAAAATATATATT [CACACA_site8508],8.72 ± 0.43
2,ATACAAATTGTTTAAAGTACAAATTACACCTCTTAA [XGTACX_site6888],8.32 ± 0.45
3,TATATACACATATATAAACACACAAAAAAAAAAAAA [CACACA_site8626],8.28 ± 0.61
4,TGTAAATATATATATACACACACACCGAAGCAATAG [CACACA_site8960],9.11 ± 0.49
5,CATACAGACATACATACACACATACATACAGACATA [CACACA_site6996],8.65 ± 0.56
6,GTATATCACACATTTGCATGTTGTCAATAGTTTATC [TGCATGCA_site134],9.04 ± 0.35
7,TAAAAAGGAAGACACACACACACATATATAAATATA [CACACA_site7657],8.72 ± 0.43
8,TTTTTTTTTTTTTAAACATGCATATTAATATTATAT [TGCATGCA_site820],8.59 ± 0.38
9,ACATTAAAAAAAAAATGTACATAAATATTTTTCCTT [XGTACX_site4361],8.24 ± 0.34
10,ATCTTTTATATAAAATGTACAGAGTTTGAAAGAATA [XGTACX_site8826],8.66 ± 0.54
11,AATTTTATTCATTGAGCACACAAAATAAATTATCAA [CACACA_site9079],8.32 ± 0.26
12,GTATTACAACGACACACACACCTATATATCATAGTA [CACACA_site7877],8.64 ± 0.39
13,TAGAACAAATAAAACACACACATATAAATATAGATG [CACACA_site7325],8.59 ± 0.32
14,GATATTATGTGTTTGGTATTTTTTGATGTTGGTAGG [XGTACX_negctrl_site563],8.8 ± 0.64
15,GTGCAAAATATTTTTACACACAAATTCTTACAACAG [CACACA_site7556],8.66 ± 0.17
16,ATATCTATGTTTATCTCGAATAACTTAAAAAATTAT [CACACA_negctrl_site1131],8.37 ± 0.45
17,TTTATACAAACAACTTTATATTAATGTTTAACGGAG [GTGCAC_negctrl_site396],8.35 ± 0.54
18,AAGGCAAACAAACACACACACATATATACATATATA [CACACA_site2122],8.62 ± 0.44
19,TCTTTCTAAAGATGTAGTACAAAATAAATATAATAT [XGTACX_site6564],8.76 ± 0.42
20,TAATATGCTCATGTAACACACATTTGCATATTTTTC [CACACA_site1357],8.74 ± 0.38
